From PubChem BioAssay AID1434 (Sanford-Burnham Center for Chemical Genomics, 2008)
Some of the results follow. The main result of the screen is listed elsewhere. These columns were measured beside it and carry no call. Compounds called inactive in the main read-out are mostly missing here.

The compounds below were run against Runt-related transcription factor 1 (Homo sapiens) + Core-binding factor subunit beta (Homo sapiens) (UniProt Q01196+Q13951) (assay: inhibitors of RUNX1 Runt–CBFb-SMMHC binding, primary screen, biochemical, FRET, Cerulean-Runt, Venus-CBFb-SMMHC, uHTS (AID 1434;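 also: 0% = DMSO wells and 100% = wells with excess untagged CBFb-SMMHC; inhibitors lower the FRET ratio by blocking Runt binding to CBFb-SMMHC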)). Conditions: Cerulean-Runt/Venus-CBFb-SMMHC FRET ratio 530/480, 1 h; retest duplicate average; at 20 µM; stronger effect = higher value.
Sequence of UniProt Q01196 (Q01196 whole entry, looked up): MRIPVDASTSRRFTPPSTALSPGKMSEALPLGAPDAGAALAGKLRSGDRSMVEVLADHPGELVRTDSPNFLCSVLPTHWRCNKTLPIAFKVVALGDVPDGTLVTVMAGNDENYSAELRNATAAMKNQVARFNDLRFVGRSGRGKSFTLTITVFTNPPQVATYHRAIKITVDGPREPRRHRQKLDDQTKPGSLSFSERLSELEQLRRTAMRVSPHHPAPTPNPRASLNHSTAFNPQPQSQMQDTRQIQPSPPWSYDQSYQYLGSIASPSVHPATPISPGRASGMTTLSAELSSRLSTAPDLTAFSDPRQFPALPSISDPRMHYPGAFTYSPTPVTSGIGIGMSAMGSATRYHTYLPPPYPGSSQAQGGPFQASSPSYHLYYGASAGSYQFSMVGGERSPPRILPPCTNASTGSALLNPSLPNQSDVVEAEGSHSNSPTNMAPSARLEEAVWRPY
Sequence of UniProt Q01196 (Q13951 whole entry, looked up): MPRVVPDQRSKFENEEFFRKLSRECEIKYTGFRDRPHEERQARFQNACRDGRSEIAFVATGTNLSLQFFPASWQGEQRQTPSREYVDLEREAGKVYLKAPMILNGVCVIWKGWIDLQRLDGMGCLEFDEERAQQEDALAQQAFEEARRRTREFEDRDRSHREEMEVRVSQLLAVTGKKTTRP

| Compound | inhibition [%] |
| --- | --- |
| O=c1cc(-c2ccc(O)cc2)oc2cc(O)c(C3OC(CO)C(O)C(O)C3O)c(O)c12 (stereo unspecified) | 88.9 |
| CCOC(=O)C1=C(CSc2nc3c(cc2C#N)CN(C)CC3)OC(N)=C(C#N)C1c1ccc(Cl)cc1 (stereo unspecified) | 61.6 |
| CCN1CC=C2C(C#N)=C(N)C(C#N)(C#N)C(c3cc(Cl)ccc3Cl)C2C1 (stereo unspecified) | 75 |
| CCC(=O)Nc1c(S(=O)(=O)c2ccccc2)c2nc3ccccc3nc2n1Cc1ccccc1 | 142 |
| CC1(C)CC(=O)C2=C(C1)N(c1cccc(O)c1)C1=C(C2)C(=O)CC(C)(C)C1 | 72.9 |
| CCOC(=O)c1c(/N=C/N(C)C)sc(C=O)c1-c1ccccc1 | 178 |
| CCOCCCNC(=S)NCCNc1nc2c(C)cccc2cc1C#N | 85.1 |
| Cc1ccc(S(=O)(=O)c2cc3c(=O)n4ccccc4nc3n(CC3CCCO3)c2=N)cc1C (stereo unspecified) | 135 |
| CCCCc1cc(=O)oc2c(CN(C)C)c(O)c(Cl)cc12 | 154 |
| CC(=O)N1CC[n+]2c(-c3ccc(Cl)cc3)csc21 | 50.3 |
| N#Cc1c2c(c(NCCN3CCOCC3)n3c1nc1ccccc13)CCCC2 | 111 |
| COc1ccc(Br)cc1C1NC(=O)c2c(sc3c2CCN(C)C3)N1 (stereo unspecified) | 167 |
| CCn1c(SCC(=O)c2ccccc2)nc2sc3c(c2c1=O)CCN(C)C3 | 60.8 |
| COc1nc(N)c(S(=O)(=O)c2ccccc2)cc1C#N | 121 |
| O=C(Nc1nc2c(s1)CN(Cc1ccccc1)CC2)C1CCC1 | 152 |
| CCOC(=O)CCc1c(C)c2ccc(O)cc2oc1=O | 90.3 |
| Nc1nc(N)c2nc(-c3ccccc3)c(N)nc2n1 | 60.7 |
| Cc1ccccc1C(=O)N=c1c(C#N)cc2c(=O)n3cccc(C)c3nc2n1Cc1ccco1 | 102 |
| C(=N\n1cnnc1)/c1ccc(N2CCOCC2)s1 | 67.3 |
| CC1=C(C(=O)OCC2CCCO2)C(c2ccccc2OC(C)C)C2=C(CC(c3ccco3)CC2=O)N1 (stereo unspecified) | 121 |
| Nc1c(C(=O)NCCN2CCOCC2)c2nc3ccccc3nc2n1-c1cccc(F)c1 | 72.9 |
| Cc1cc(=O)oc2c(CN3CC(C)OC(C)C3)c(O)c(Cl)cc12 (stereo unspecified) | 167 |

| Compound | inhibition [%] |
| --- | --- |
| c1ccc(Cn2c(-c3cccs3)nc3nc4ccccc4nc32)cc1 | 82.6 |
| CCOC(=O)c1cc2c(=O)n3ccccc3nc2n(C(C)C)c1=NC(=O)c1ccncc1 | 177 |
| Oc1ccc(O)c(-c2cnns2)c1 | 56.4 |
| O=c1c2ccccc2sc2ccc(Cl)cc12 | 113 |
| Cc1c(Cc2ccccc2)sc(/N=C/c2c(O)ccc3ccccc23)c1C(N)=O | 71.5 |
| CC(C)CN(C(=O)CN1CCc2ccccc21)c1c(N)n(CC(C)C)c(=O)[nH]c1=O | 98.1 |
| O=S(=O)(c1ccc(N2CCC(c3ccc(Cl)cc3)=N2)cc1)N(CCO)CCO | 112 |
| N=c1c(C(=O)NCc2ccc(F)cc2)cc2c(=O)n3ccccc3nc2n1Cc1ccco1 | 71.5 |
| COc1ccc(C2c3ccc(O)cc3Oc3ncn(CC(C)C)c(=N)c32)cc1 (stereo unspecified) | 65 |
| Nc1n[nH]c2cc(=O)n(-c3ccc(Cl)cc3)nc12 | 55.6 |
| O=C(Nc1nccs1)c1ccccc1N=Cc1ccccc1 | 60.9 |
| C/C(=N/NC(=O)c1cccs1)c1c(C)[nH]n(-c2nc3ccccc3s2)c1=O | 83.1 |
| CC(C)(C)OC(=O)NCC(=O)Oc1cc2oc(=O)cc(-c3ccccc3)c2cc1Cl | 71.5 |
| CCOC(=O)C1=C(Cc2ccc(Cl)cc2)C(=O)c2ccccc2C1=O | 61.3 |
| O=C(CSc1ncnc2ccccc12)c1ccco1 | 135 |
| N#Cc1c(-c2ccccc2Cl)c2c([nH]c1=O)-c1ccccc1OC2 | 70.6 |
| CCOC(=O)c1cc2c(=O)n3cccc(C)c3nc2n(Cc2ccco2)c1=NC(=O)c1ccccc1 | 128 |
| Cn1c(NNC(=O)c2cccc3ccccc23)cc(=O)n(C)c1=O | 105 |
| CCN(CC)c1ccc2c(C)c(Cl)c(=O)oc2c1 | 70.6 |
| O=C(NNc1c2ccccc2nc2ccccc12)c1ccc(O)cc1 | 96.8 |
| CCCCn1nc(NC(=O)c2cccs2)c2cc3cc(OC)ccc3nc21 | 114 |
| CCN(CC)c1ccc(/C=N/NC(=O)c2ccco2)c(O)c1 | 83.4 |

| Compound | inhibition [%] |
| --- | --- |
| COc1ccc(Cn2c(O)c(/C=N/NC(=O)c3cccnc3)c3ccccc3c2=O)cc1 | 70.6 |
| CCc1ccccc1N1CSC2=C(C#N)C(c3ccccc3F)CC(=O)N2C1 (stereo unspecified) | 119 |
| CC1(C)CC(=O)C2=C(C1)N(CCN1CCOCC1)C1=C(C(=O)CC(C)(C)C1)C2c1cccc(F)c1 | 71.5 |
| C/C(=N\Nc1nc(-c2cc(C)ccc2C)cs1)c1cc2c(ccc3ccccc32)oc1=O | 71.5 |
| N#Cc1cnn2c3c(cnc12)C(=O)N1CCc2ccccc2C1C3 (stereo unspecified) | 171 |
| CC1=C(C(=O)OC(C)C)C(c2cccnc2)C2=C(CC(C)(C)CC2=O)N1 (stereo unspecified) | 138 |
| Cc1cc2c3c(ccc(C)c3n1)N=CN2c1ccccc1 | 71.5 |
| CNc1sc(C(=O)c2cccs2)c(N)c1-c1nc2ccccc2s1 | 78.7 |
| O=c1c2ccccc2[nH]c2ccccc12 | 186 |
| CCCCCCc1cc2cc(S(=O)(=O)c3ccc(F)cc3)c(=O)oc2cc1O | 71.5 |
| CN(C)c1oc(/C=C/c2ccccc2)nc1C#N | 135 |
| CCc1c(C)c2cc(Cl)c(O)c(CN(C)C)c2oc1=O | 173 |
| O=C(Nc1cc2c(=O)n(-c3ccc(Oc4ccccc4)cc3)ccc2oc1=O)c1ccccc1 | 144 |
| Cc1ccc(CNC(=O)c2cc3c(=O)n4ccccc4nc3n(CC3CCCO3)c2=N)cc1 (stereo unspecified) | 71.5 |
| CN1CCc2c(sc3c2C(=O)NC(c2cccc(OC(=O)c4cccs4)c2)N3)C1 (stereo unspecified) | 143 |
| Cc1cc(-n2c(=O)c(C#N)cc3c(=O)n4cccc(C)c4nc32)no1 | 71.5 |
| O=C(c1ccc(Cl)cc1)N1CCN(c2ccc(F)cc2)CC1 | 59.5 |
| CCCn1c(=NC(=O)c2ccc3c(c2)OCO3)c(C#N)cc2c(=O)n3cccc(C)c3nc21 | 121 |
| Cc1oc2cc(O)ccc2c(=O)c1-c1nncn1-c1ccccc1 | 63.6 |
| N#CC1=C(N)C(C#N)(C#N)[C@H](c2ccoc2)[C@H]2CN(Cc3ccccc3)CC=C12 | 76.5 |
| O=C(c1cc2ccccc2oc1=O)N1CCN(CCc2ccccc2)CC1 | 84.7 |
| Cn1c(=O)c(/C=C/c2ccccc2)nc2ccccc21 | 89.9 |

| Compound | inhibition [%] |
| --- | --- |
| Cc1c(Cc2ccccc2)c(NCCCO)n2c(nc3ccccc32)c1C#N | 81.3 |
| CC(=O)Nc1sc2c(c1C(N)=O)CCN(Cc1ccccc1)C2 | 169 |
| COc1cccc(N=c2oc3cc(O)ccc3cc2C(=O)NCC2CCCO2)c1 (stereo unspecified) | 70.6 |
| O=S(=O)(Nc1nc2ccccc2nc1-[n+]1cccc(N=C([O-])c2ccccc2Cl)c1)c1ccccc1 | 116 |
| COCCn1c(N)c(C(=O)NCC2CCCO2)c2nc3ccccc3nc21 (stereo unspecified) | 72.9 |
| CC1(C)CC(=O)C2=C(C1)N(CCN1CCOCC1)C1=C(C(=O)CC(C)(C)C1)C2c1ccc(Cl)cc1 | 70.6 |
| Cc1ncc(CO)c(/C=N/NC(=O)c2ccc(O)cc2)c1O | 71.5 |
| Cc1cc(C)c2c(=O)n(CC(=O)Nc3cccc(F)c3)sc2n1 | 55.9 |
| C=CCn1c(=N)c(C#N)cc2c(=O)n3ccccc3nc21 | 71.5 |
| CN1CC=C2C(C#N)=C(N)C(C#N)(C#N)C(CCc3ccccc3)C2C1 (stereo unspecified) | 71.5 |
| COC(=O)c1ccccc1N/C=C1\CCc2c(c(C)nn2-c2ccccn2)C1=O | 53.7 |
| CCCc1cc(=O)oc2c(CN3CCCC3)c(O)ccc12 | 129 |
| COc1cccc2c1NC(C(=O)O)C1CC=CC21 (stereo unspecified) | 47.7 |
| CCCNC(=O)COC(=O)c1cc2c(=O)n3ccccc3nc2s1 | 144 |
| CSc1nc(-c2ccc(N(C)C)cc2)c(C#N)c(=O)n1C | 70.6 |
| COc1cccc2c(=O)c3cccc(N)c3[nH]c12 | -71.3 |
| CCN1CCc2c(sc(NC(=S)NC(=O)c3ccc(Cl)cc3)c2C(N)=O)C1 | 110 |
| COc1cc(NS(=O)(=O)c2ccc(N/C=C\C(=O)c3ccc(OC)c(OC)c3)cc2)nc(OC)n1 | 108 |
| CCCCCCc1cc2cc(C(=O)NC)c(=N)oc2cc1O | 72.9 |
| COCCCn1c(=N)c(C(=O)NCC2CCCO2)cc2c(=O)n3ccccc3nc21 (stereo unspecified) | 72.9 |
| COc1cccc(C2C(C#N)=C(C)NC3=C2C(=O)CC(C)(C)C3)c1 (stereo unspecified) | 55.2 |
| Cc1ccc2nc3c(cc(C#N)c(=O)n3-c3nccs3)c(=O)n2c1 | 72.9 |

| Compound | inhibition [%] |
| --- | --- |
| CC(Oc1ccc(Cl)cc1Cl)C(=O)NCCCn1ccnc1 (stereo unspecified) | 90.3 |
| C=CCNC(=O)c1cc2c(=O)n3cc(C)ccc3nc2nc1NCC1CCCO1 (stereo unspecified) | 71.5 |
| OCCNc1nc(-c2ccccc2)c2cc(Cl)ccc2n1 | 82.6 |
| N#Cc1c(N)n(-c2cccc(O)c2)c2nc3ccccc3nc12 | 133 |
| Cc1ccc(-n2c(=O)c(C#N)cc3c(=O)n4cccc(C)c4nc32)cc1 | 167 |
| CCc1c(C)c(C#N)c2nc3ccccc3n2c1NCc1ccco1 | 78.8 |
| CCC1(C)Cc2c(sc3[nH]c(=O)[nH]c(=O)c23)CS1 (stereo unspecified) | 106 |
| CC(C)OC(=O)c1c2nc3ccccc3nc2n2c1[nH]c(=O)c1ccccc12 | 71.5 |
| CC1(C)CC(=O)C2=C(C1)Nc1[nH]c(=S)[nH]c(=O)c1C2c1ccccc1 (stereo unspecified) | 53.4 |
| CN1CC=C2C(C#N)=C(N)C(C#N)(C#N)[C@H](c3cccs3)[C@H]2C1 | 111 |
| Cc1cc2c(C)cc(=O)oc2c2c1NCCC2 | 72.9 |
| CC(=O)c1c(N2CCN(CCO)CC2)nc(=S)n(-c2ccccc2)c1C | 70.6 |
| CC(=O)Nc1nc2n(n1)C(c1ccc(Cl)cc1)C=C(C)N2 (stereo unspecified) | 86.3 |
| CCN(CC)Cc1c(O)c(Cl)cc2c(C)c(C)c(=O)oc12 | 153 |
| CCc1c(C)c2ccc(O)c(CN(C)C)c2oc1=O | 133 |
| COc1ccc(-c2cc(C(F)(F)F)n3nc(N)nc3n2)cc1 | 68.1 |
| Cc1cc(C)c2c(=O)n(CC(=O)N3CCC(Cc4ccccc4)CC3)sc2n1 | 52.7 |
| Cc1c(C)c2cc(Cl)c(O)c(CN3CCN(C)CC3)c2oc1=O | 169 |
